Source: article PMC8047445, “A weakened interface in the P182L variant of HSP27 associated with severe Charcot‐Marie‐Tooth neuropathy causes aberrant binding to interacting proteins” (The EMBO Journal, 2021)

B1: full-length P182L variant of HSP27 (natural protein)
chain: not shown
notes: HSP27 (HSPB1), human, […], with the CMT disease-causing mutation P182L; Oligomers of on average ca. 620 subunits by SEC-MALS; also called P182L HSP27; source: E. coli, inclusion bodies solubilized in 8 M urea, dialyzed, Superdex 200 gel filtration
B2: cHSP27 with the C137S mutation (domain or fragment)
chain: not shown
notes: HSP27 (HSPB1), human, alpha-crystallin domain, […], C137S; Used for SEC-MALS; the tag and its cleavage are told for cHSP27 in general; also called cHSP27(C137S); source: E. coli, purified as described previously (Alderson et al, 2019); not shown: His6, N-terminal, cleaved

Molecular target: the molecule itself
Test: SEC-MALS; 250 ug injected, 40 uM monomer; Superdex-200 (WT and P182L HSP27) or Superdex-75 (cHSP27 C137S); 30 mM sodium phosphate, 100 mM NaCl, 2 mM EDTA, pH 7

Protein	stoichiometry N
B1	~620 subunits
B2	2
